From publication PMC12820563
This is one part of the list. The list includes weakly bound sequences.

Target: T1, MBP-FoxP3dN (UniProt Q99JB6)
T1 sequence: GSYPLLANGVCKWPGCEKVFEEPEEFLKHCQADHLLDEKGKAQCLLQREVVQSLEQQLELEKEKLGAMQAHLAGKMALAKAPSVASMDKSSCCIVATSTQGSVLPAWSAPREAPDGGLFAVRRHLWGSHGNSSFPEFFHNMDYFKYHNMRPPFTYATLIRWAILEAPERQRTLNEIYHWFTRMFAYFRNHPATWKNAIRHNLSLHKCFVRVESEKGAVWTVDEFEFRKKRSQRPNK
Assay: PD-seq (MBP pull-down with sequencing)
Settings: 20 mM Tris-HCl pH 7.5, 100 mM NaCl, 1.5 mM MgCl2, 0.4 uM protein, 0.1 uM dsDNA library, 30 min, room temperature, amylose pull-down; high values mean tight binding; double strand, one strand shown

Row | Sequence | binding signal (RPM ratio (pull-down/input))
1 | GATGATTGTTCTCCCAGCTGATGAATTAGCTACCTCGAGTAAACAAATTTTCCTAATCTTTCTGTTCAAGCGCCATCTAC | 0.49
2 | GATGATTGTTCTCCCAGCTGATGAATTAACAGTTTCGAGTAAACAAATTTTCCTAATCTTTCTGTTCAAGCGCCATCTAC | 0.424
3 | GATGATTGTTCTCCCAGCTGATGAATTCTAGTAGTCGAGTAAACAAATTTTCCTAATCTTTCTGTTCAAGCGCCATCTAC | 0.431
4 | GATGATTGTTCTCCCAGCTGATGAATTGTCCCGGTCGAGTAAACAAATTTTCCTAATCTTTCTGTTCAAGCGCCATCTAC | 0.234
5 | GATGATTGTTCTCCCAGCTGATGAATTCGCATCTTCGAGTAAACAAATTTTCCTAATCTTTCTGTTCAAGCGCCATCTAC | 5.81
6 | GATGATTGTTCTCCCAGCTGATGAATTATGCTCGTCGAGTAAACAAATTTTCCTAATCTTTCTGTTCAAGCGCCATCTAC | 0.988
7 | GATGATTGTTCTCCCAGCTGATGAATTCACGGTGTCGAGTAAACAAATTTTCCTAATCTTTCTGTTCAAGCGCCATCTAC | 0.496
8 | GATGATTGTTCTCCCAGCTGATGAATTCGCGGATTCGAGTAAACAAATTTTCCTAATCTTTCTGTTCAAGCGCCATCTAC | 0.25
9 | GATGATTGTTCTCCCAGCTGATGAATTGTCACCCTCGAGTAAACAAATTTTCCTAATCTTTCTGTTCAAGCGCCATCTAC | 0.486
10 | GATGATTGTTCTCCCAGCTGATGAATTCCTCTGCTCGAGTAAACAAATTTTCCTAATCTTTCTGTTCAAGCGCCATCTAC | 0.218
11 | GATGATTGTTCTCCCAGCTGATGAATTTGATAATTCGAGTAAACAAATTTTCCTAATCTTTCTGTTCAAGCGCCATCTAC | 0.592
12 | GATGATTGTTCTCCCAGCTGATGAATTCCCCAGATCGAGTAAACAAATTTTCCTAATCTTTCTGTTCAAGCGCCATCTAC | 0.147
13 | GATGATTGTTCTCCCAGCTGATGAATTATACGACTCGAGTAAACAAATTTTCCTAATCTTTCTGTTCAAGCGCCATCTAC | 0.401
14 | GATGATTGTTCTCCCAGCTGATGAATTTTGGACTTCGAGTAAACAAATTTTCCTAATCTTTCTGTTCAAGCGCCATCTAC | 0.475
15 | GATGATTGTTCTCCCAGCTGATGAATTAGGGAAATCGAGTAAACAAATTTTCCTAATCTTTCTGTTCAAGCGCCATCTAC | 0.355
16 | GATGATTGTTCTCCCAGCTGATGAATTCCTGATGTCGAGTAAACAAATTTTCCTAATCTTTCTGTTCAAGCGCCATCTAC | 0.319
17 | GATGATTGTTCTCCCAGCTGATGAATTTTACCTATCGAGTAAACAAATTTTCCTAATCTTTCTGTTCAAGCGCCATCTAC | 0.323
18 | GATGATTGTTCTCCCAGCTGATGAATTCACACCCTCGAGTAAACAAATTTTCCTAATCTTTCTGTTCAAGCGCCATCTAC | 0.376
19 | GATGATTGTTCTCCCAGCTGATGAATTCAACGAGTCGAGTAAACAAATTTTCCTAATCTTTCTGTTCAAGCGCCATCTAC | 0.205
20 | GATGATTGTTCTCCCAGCTGATGAATTATGAAATTCGAGTAAACAAATTTTCCTAATCTTTCTGTTCAAGCGCCATCTAC | 0.632

Row | Sequence | binding signal (RPM ratio (pull-down/input))
21 | GATGATTGTTCTCCCAGCTGATGAATTCACCGCATCGAGTAAACAAATTTTCCTAATCTTTCTGTTCAAGCGCCATCTAC | 0.824
22 | GATGATTGTTCTCCCAGCTGATGAATTCTGTTTTTCGAGTAAACAAATTTTCCTAATCTTTCTGTTCAAGCGCCATCTAC | 5.51
23 | GATGATTGTTCTCCCAGCTGATGAATTTGCTCTATCGAGTAAACAAATTTTCCTAATCTTTCTGTTCAAGCGCCATCTAC | 0.483
24 | GATGATTGTTCTCCCAGCTGATGAATTTGGCGGGTCGAGTAAACAAATTTTCCTAATCTTTCTGTTCAAGCGCCATCTAC | 0.619
25 | GATGATTGTTCTCCCAGCTGATGAATTCGTGTCATCGAGTAAACAAATTTTCCTAATCTTTCTGTTCAAGCGCCATCTAC | 1.06
26 | GATGATTGTTCTCCCAGCTGATGAATTCGTCGTGTCGAGTAAACAAATTTTCCTAATCTTTCTGTTCAAGCGCCATCTAC | 1.63
27 | GATGATTGTTCTCCCAGCTGATGAATTGACCCGATCGAGTAAACAAATTTTCCTAATCTTTCTGTTCAAGCGCCATCTAC | 0.22
28 | GATGATTGTTCTCCCAGCTGATGAATTCCAAGCATCGAGTAAACAAATTTTCCTAATCTTTCTGTTCAAGCGCCATCTAC | 0.68
29 | GATGATTGTTCTCCCAGCTGATGAATTTGAATTCTCGAGTAAACAAATTTTCCTAATCTTTCTGTTCAAGCGCCATCTAC | 0.784
30 | GATGATTGTTCTCCCAGCTGATGAATTAATATCATCGAGTAAACAAATTTTCCTAATCTTTCTGTTCAAGCGCCATCTAC | 0.783
31 | GATGATTGTTCTCCCAGCTGATGAATTCAACGCGTCGAGTAAACAAATTTTCCTAATCTTTCTGTTCAAGCGCCATCTAC | 0.509
32 | GATGATTGTTCTCCCAGCTGATGAATTCGAGGGCTCGAGTAAACAAATTTTCCTAATCTTTCTGTTCAAGCGCCATCTAC | 0.273
33 | GATGATTGTTCTCCCAGCTGATGAATTGCTATCCTCGAGTAAACAAATTTTCCTAATCTTTCTGTTCAAGCGCCATCTAC | 0.786
34 | GATGATTGTTCTCCCAGCTGATGAATTACTATAGTCGAGTAAACAAATTTTCCTAATCTTTCTGTTCAAGCGCCATCTAC | 0.348
35 | GATGATTGTTCTCCCAGCTGATGAATTAACGCGATCGAGTAAACAAATTTTCCTAATCTTTCTGTTCAAGCGCCATCTAC | 0.623
36 | GATGATTGTTCTCCCAGCTGATGAATTATAGCTGTCGAGTAAACAAATTTTCCTAATCTTTCTGTTCAAGCGCCATCTAC | 0.523
37 | GATGATTGTTCTCCCAGCTGATGAATTGATTGCCTCGAGTAAACAAATTTTCCTAATCTTTCTGTTCAAGCGCCATCTAC | 1.55
38 | GATGATTGTTCTCCCAGCTGATGAATTCCGAGTGTCGAGTAAACAAATTTTCCTAATCTTTCTGTTCAAGCGCCATCTAC | 1.1
39 | GATGATTGTTCTCCCAGCTGATGAATTTCGGGCGTCGAGTAAACAAATTTTCCTAATCTTTCTGTTCAAGCGCCATCTAC | 0.479
40 | GATGATTGTTCTCCCAGCTGATGAATTTAAAAGTTCGAGTAAACAAATTTTCCTAATCTTTCTGTTCAAGCGCCATCTAC | 0.183
